We go through 39 compounds from the supplement of paper PMC8007513.

SMILES strings stand for the structures. Where a name gives a salt, the structure may show the parent alone. ± gives the standard error. The campaign covered roughly 1,300 compounds. About 130 (10%) showed an effect of 50% or more. The entries are a selection whose mix differs from that of the whole data set.

The test system of the assay is Trichoderma virens ATCC 9645. In words: growth yield (OD600) with compound + IPBC relative to untreated control; higher = less growth inhibition. As to conditions: compound concentration: 100 uM, IPBC concentration: 200 ng/ml. The method in brief: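 A biocide at 200 ng ml^−1 was co-applied to some wells, and library compounds were present in all test wells at 100 μM final. The wells held 100 μl of Trichoderma virens ATCC 9645 spores at 15,000 spores ml^−1 in potato dextrose broth, grown at 30 °C in 96-well plates, with OD600 read at 40 h and 72 h. Results are relative growth against the control without either agent, averaged across duplicate screens.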

As for `Nc1ccn([C@@H]2CS[C@H](CO)O2)c(=O)n1` [Lamivudine] + CCCCNC(=O)OCC#CI [3-iodo-2-propynyl butylcarbamate (IPBC)], the growth yield came to 82.1 ± 3% (40 h) and 90.9 ± 4.1% (72 h). The like results for `CN(C)C(=O)Oc1ccc[n+](C)c1` [Pyridostigmine iodide] + CCCCNC(=O)OCC#CI [3-iodo-2-propynyl butylcarbamate (IPBC)] were, in that order, 87.2 ± 1.8% and 90.4 ± 2.5%. `NC1CCN(c2nc3c(cc2F)c(=O)c(C(=O)O)cn3-c2ccc(F)cc2F)C1` (configuration not stated) [Tosufloxacin hydrochloride] + CCCCNC(=O)OCC#CI [3-iodo-2-propynyl butylcarbamate (IPBC)]: the growth yield by setting is: (40 h) 80.7 ± 5.4%; (72 h) 86.5 ± 4.3%.

Turning to `CN1CCN2c3ncccc3Cc3ccccc3C2C1` (configuration not stated) [Mirtazapine] + CCCCNC(=O)OCC#CI [3-iodo-2-propynyl butylcarbamate (IPBC)], the growth yield by setting is: (40 h) 99.1 ± 4.5%; (72 h) 107 ± 3.6%.

Consider `COC(=O)N/N=C/c1c[n+]([O-])c2ccccc2[n+]1[O-]` [Carbadox] + CCCCNC(=O)OCC#CI [3-iodo-2-propynyl butylcarbamate (IPBC)], for which the growth yield is 80.7 ± 1.3% (40 h) and 87.7 ± 1.5% (72 h). On to `CN(C(=O)CN(CCO)CC(=O)N(C)C(C)(C)Cc1ccccc1)C(C)(C)Cc1ccccc1` [Oxethazaine] + CCCCNC(=O)OCC#CI [3-iodo-2-propynyl butylcarbamate (IPBC)], for which the growth yield reads like this: (40 h) 50.5 ± 2.2%; (72 h) 90.8 ± 4.6%.

Take `Cc1cc(C)nc(NS(=O)(=O)c2ccc(N)cc2)n1` [Sulfamethazine sodium salt] + CCCCNC(=O)OCC#CI [3-iodo-2-propynyl butylcarbamate (IPBC)]: the growth yield was 100 ± 14% (40 h) and 98.5 ± 9.1% (72 h). The corresponding values for `COc1cc(NS(=O)(=O)c2ccc(N)cc2)ncn1` [Sulfamonomethoxine] + CCCCNC(=O)OCC#CI [3-iodo-2-propynyl butylcarbamate (IPBC)] are 96.1 ± 14% and 101 ± 11%. Consider `CC1(C)O[C@@H]2C[C@H]3[C@@H]4C[C@H](F)C5=CC(=O)C=C[C@]5(C)[C@@]4(F)[C@@H](O)C[C@]3(C)[C@]2(C(=O)CO)O1` [Fluocinolone acetonide] + CCCCNC(=O)OCC#CI [3-iodo-2-propynyl butylcarbamate (IPBC)], for which the growth yield (40 h) was 93.7 ± 6.3% and the growth yield (72 h) turned out to be 96.4 ± 6.8%.

Consider `CC(C(O)c1ccc(O)cc1)N1CCC(Cc2ccccc2)CC1` (configuration not stated) [Ifenprodil tartrate] + CCCCNC(=O)OCC#CI [3-iodo-2-propynyl butylcarbamate (IPBC)], for which the growth yield (40 h) was determined as 92 ± 7.5% and the growth yield (72 h) was found to be 96.8 ± 6.2%.

For the compound `CC#C[C@]1(O)CC[C@H]2[C@@H]3CCC4=CC(=O)CCC4=C3[C@@H](c3ccc(N(C)C)cc3)C[C@@]21C` [Mifepristone] + CCCCNC(=O)OCC#CI [3-iodo-2-propynyl butylcarbamate (IPBC)], the growth yield (40 h) is 104 ± 5.4% and the growth yield (72 h) is 110 ± 2.3%. As for `CCCCCCNC(=O)n1cc(F)c(=O)[nH]c1=O` [Carmofur] + CCCCNC(=O)OCC#CI [3-iodo-2-propynyl butylcarbamate (IPBC)], the growth yield came out at 21.9 ± 0.95% (40 h) and 31.4 ± 0.32% (72 h).

With `CCN(CC)C(=O)Nc1ccc(OCC(O)CNC(C)(C)C)c(C(C)=O)c1` (configuration not stated) [Celiprolol hydrochloride] + CCCCNC(=O)OCC#CI [3-iodo-2-propynyl butylcarbamate (IPBC)], the growth yield (40 h) turned out to be 87 ± 5.7% and the growth yield (72 h) turned out to be 92.2 ± 3.9%.

As to `CCCCC1C(=O)N(c2ccccc2)N(c2ccc(O)cc2)C1=O` (configuration not stated) [Oxyphenbutazone] + CCCCNC(=O)OCC#CI [3-iodo-2-propynyl butylcarbamate (IPBC)], the growth yield by setting is: (40 h) 91.3 ± 19%; (72 h) 103 ± 7.9%. For the compound `N[C@H]1CONC1=O` [(S)-(-)-Cycloserine] + CCCCNC(=O)OCC#CI [3-iodo-2-propynyl butylcarbamate (IPBC)], the growth yield runs as follows: (40 h) 88%; (72 h) 88.7 ± 1.1%. The like results for `CN1[C@@H]2C[C@@H](OC(=O)[C@H](CO)c3ccccc3)C[C@H]1[C@@H]1O[C@@H]12` [Scopolamine hydrochloride] + CCCCNC(=O)OCC#CI [3-iodo-2-propynyl butylcarbamate (IPBC)] were, in that order, 94.4 ± 7.9% and 94.1 ± 3.5%.

In the case of `COc1cc2nc(N3CCN(C(=O)C4COc5ccccc5O4)CC3)nc(N)c2cc1OC` (configuration not stated) [Doxazosin mesylate] + CCCCNC(=O)OCC#CI [3-iodo-2-propynyl butylcarbamate (IPBC)], the growth yield by setting is: (40 h) 62.6 ± 18%; (72 h) 90.1 ± 15%. The corresponding values for `C#C[C@]1(O)CC[C@H]2[C@@H]3CCC4=CC(=O)CCC4=C3C=C[C@@]21CC` [Gestrinone] + CCCCNC(=O)OCC#CI [3-iodo-2-propynyl butylcarbamate (IPBC)] are 100 ± 2.4% and 95.54 ± 0.32%.

Turning to `CCN(CCCCOC(=O)c1ccc(OC)c(OC)c1)C(C)Cc1ccc(OC)cc1` (configuration not stated) [Mebeverine hydrochloride] + CCCCNC(=O)OCC#CI [3-iodo-2-propynyl butylcarbamate (IPBC)], the growth yield reads like this: (40 h) 80.7 ± 3.8%; (72 h) 93.3 ± 1.9%.

Regarding `CCN(CC)C(=O)C1(c2ccccc2)CC1CN` (configuration not stated) [Milnacipran hydrochloride] + CCCCNC(=O)OCC#CI [3-iodo-2-propynyl butylcarbamate (IPBC)], the growth yield is, setting by setting: (40 h) 92.9 ± 6.8%; (72 h) 91.7 ± 4.2%. Take `Cc1cc(C(C)(C)C)cc(C)c1CC1=NCCN1` [Xylometazoline hydrochloride] + CCCCNC(=O)OCC#CI [3-iodo-2-propynyl butylcarbamate (IPBC)]: the growth yield was 86.6 ± 3.6% (40 h) and 98.2 ± 3.6% (72 h). Take `CCN(CC)CCOCCOC(=O)C1(c2ccccc2)CCCC1` [Carbetapentane citrate] + CCCCNC(=O)OCC#CI [3-iodo-2-propynyl butylcarbamate (IPBC)]: the growth yield reads like this: (40 h) 74.8 ± 1.8%; (72 h) 88.94 ± 0.42%. For the compound `C=CCOc1ccccc1OCC(O)CNC(C)C` (configuration not stated) [Oxprenolol hydrochloride] + CCCCNC(=O)OCC#CI [3-iodo-2-propynyl butylcarbamate (IPBC)], the growth yield reads like this: (40 h) 92 ± 6.8%; (72 h) 93.8 ± 4.4%. The corresponding values for `NC[C@H]1O[C@H](O[C@H]2[C@H](O)[C@@H](O[C@H]3O[C@H](CO)[C@@H](O)[C@H](N)[C@H]3O)[C@H](N)C[C@@H]2N)[C@H](N)C[C@@H]1O` [Tobramycin] + CCCCNC(=O)OCC#CI [3-iodo-2-propynyl butylcarbamate (IPBC)] are 76.4 ± 0.16% and 85.9 ± 1.4%. The corresponding values for `Cc1c(N)c(=O)n(-c2ccccc2)n1C` [Ampyrone] + CCCCNC(=O)OCC#CI [3-iodo-2-propynyl butylcarbamate (IPBC)] are 104 ± 3.8% and 105 ± 1.8%. The like results for `CCOC(=O)/C=C(C)/C=C/C=C(C)/C=C/c1c(C)cc(OC)c(C)c1C` [Etretinate] + CCCCNC(=O)OCC#CI [3-iodo-2-propynyl butylcarbamate (IPBC)] were, in that order, 112 ± 16% and 105 ± 11%. For the compound `Nc1ccc(S(=O)(=O)Nc2nccs2)cc1` [Sulfathiazole] + CCCCNC(=O)OCC#CI [3-iodo-2-propynyl butylcarbamate (IPBC)], the growth yield runs as follows: (40 h) 85.14 ± 0.32%; (72 h) 86.1 ± 0.94%.

For `CC(CNC1CCCCC1)OC(=O)c1ccccc1` (configuration not stated) [Hexylcaine hydrochloride] + CCCCNC(=O)OCC#CI [3-iodo-2-propynyl butylcarbamate (IPBC)], the growth yield reads like this: (40 h) 119 ± 12%; (72 h) 113 ± 10%.

On to `Cc1ccc(-c2cc(C(F)(F)F)nn2-c2ccc(S(N)(=O)=O)cc2)cc1` [Celecoxib] + CCCCNC(=O)OCC#CI [3-iodo-2-propynyl butylcarbamate (IPBC)], for which the growth yield by setting is: (40 h) 57.8 ± 0.64%; (72 h) 78.76 ± 0.73%. The like results for `C[C@@H]1CCC[C@H](C)N1NC(=O)c1ccc(Cl)c(S(N)(=O)=O)c1` [Clopamide] + CCCCNC(=O)OCC#CI [3-iodo-2-propynyl butylcarbamate (IPBC)] were, in that order, 80.85 ± 0.48% and 91.1 ± 0.94%. The like results for `CC[C@H]1OC(=O)[C@H](C)[C@@H](O[C@H]2C[C@@](C)(OC)[C@@H](O)[C@H](C)O2)[C@H](C)[C@@H](O[C@@H]2O[C@H](C)C[C@H](N(C)C)[C@H]2O)[C@](C)(O)C[C@@H](C)CN(C)[C@H](C)[C@@H](O)[C@]1(C)O` [Azithromycin] + CCCCNC(=O)OCC#CI [3-iodo-2-propynyl butylcarbamate (IPBC)] were, in that order, 108.7 ± 0.95% and 106 ± 0.32%.

Consider `NCC(CC(=O)O)c1ccc(Cl)cc1` (racemic) [Baclofen (R,S)] + CCCCNC(=O)OCC#CI [3-iodo-2-propynyl butylcarbamate (IPBC)], for which the growth yield runs as follows: (40 h) 96.1 ± 4%; (72 h) 96.8 ± 3.2%. Turning to `CN[C@H]1CC[C@@H](c2ccc(Cl)c(Cl)c2)c2ccccc21` [Sertraline] + CCCCNC(=O)OCC#CI [3-iodo-2-propynyl butylcarbamate (IPBC)], the growth yield (40 h) stood at 30.8 ± 4.1%.

Regarding `CC(=O)Nc1c(I)c(C(=O)N[C@H]2C(O)O[C@H](CO)[C@@H](O)[C@@H]2O)c(I)c(N(C)C(C)=O)c1I` (some centres not stated) [Metrizamide] + CCCCNC(=O)OCC#CI [3-iodo-2-propynyl butylcarbamate (IPBC)], the growth yield by setting is: (40 h) 98.8 ± 8.6%; (72 h) 100 ± 8.3%. The corresponding values for `CCN(CC)CCNC(=O)c1ccc(N)cc1` [Procainamide hydrochloride] + CCCCNC(=O)OCC#CI [3-iodo-2-propynyl butylcarbamate (IPBC)] are 89.1 ± 2.4% and 95.4 ± 1.7%.

With `CNCC(O)c1ccc(O)c(O)c1` (configuration not stated) [Racepinephrine hydrochloride] + CCCCNC(=O)OCC#CI [3-iodo-2-propynyl butylcarbamate (IPBC)], the growth yield reads like this: (40 h) 88.8 ± 3.6%; (72 h) 89.4 ± 3.1%. The like results for `CCOC1O[C@H]([C@@H](COCc2ccccc2)OCc2ccccc2)[C@H](OCc2ccccc2)[C@H]1O` (some centres not stated) [Tribenoside] + CCCCNC(=O)OCC#CI [3-iodo-2-propynyl butylcarbamate (IPBC)] were, in that order, 75.4 ± 2.1% and 88.1 ± 1.1%. The like results for `Clc1ccc2nsnc2c1NC1=NCCN1` [Tizanidine hydrochloride] + CCCCNC(=O)OCC#CI [3-iodo-2-propynyl butylcarbamate (IPBC)] were, in that order, 83.4 ± 2.4% and 91.3 ± 1.1%. The corresponding values for `CC(C)Oc1ccc2c(=O)c(-c3ccccc3)coc2c1` [Ipriflavone] + CCCCNC(=O)OCC#CI [3-iodo-2-propynyl butylcarbamate (IPBC)] are 78.3 ± 4.6% and 88.2 ± 2.6%.
